Test results: the supplement of paper PMC4967469
A lower IC50 marks a more sensitive line; where the fit passes the top or lowest dose, that dose stands as a limit. AUC is the area under the same curve over the 256-fold range up to the top dose, as a fraction: 1 means no effect, lower means more sensitive. An inferred top dose comes from the curve model; the source does not state it.

The cell lines below were run with CCn1cc(-c2ccnc3[nH]c(-c4cccc(CN(C)C)c4)cc23)c(-c2ccc(NC(=O)N(C)C)cc2)n1 [GSK1070916] (assay: Viability of human cancer cell lines after 72 h of drug (GDSC screen)). Details: top dose inferred.
Protocol: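 Human cancer cell lines in 384-well plates, medium with 10% serum, drug for 72 h over a 256-fold dose range (nine 2-fold or five 4-fold steps up to the top dose). Adherent lines were fixed and stained with the nucleic acid dye Syto60, suspension lines read with resazurin; signal relative to control wells, capped at 0 and 100%. One two-parameter sigmoid per drug and line, fitted in a mixed model over all curves with the slope shared within a line.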

| Cell Line | AUC | IC50 |
| --- | --- | --- |
| NKM-1 (acute myeloid leukaemia, suspension, top dose 2.56 µM) | 0.184 | 17.4 nM |
| NMC-G1 (glioma, adherent, top dose 2.56 µM) | 0.837 | 2300 nM |
| NOMO-1 (acute myeloid leukaemia, suspension, top dose 2.56 µM) | 0.473 | 134 nM |
| NOS-1 (osteosarcoma, adherent, top dose 2.56 µM) | 0.735 | 886 nM |
| NTERA-2 cl.D1 (testis, adherent, top dose 2.56 µM) | 0.97 | > 2560 nM |
| NU-DUL-1 (B-cell lymphoma, suspension, top dose 2.56 µM) | 0.573 | 244 nM |
| NUGC-3 (stomach, adherent, top dose 2.56 µM) | 0.969 | > 2560 nM |
| NUGC-4 (stomach, adherent, top dose 2.56 µM) | 0.982 | > 2560 nM |
| NY (osteosarcoma, adherent, top dose 2.56 µM) | 0.989 | > 2560 nM |
| OACM5-1 (oesophagus, semi-adherent, top dose 2.56 µM) | 0.675 | 525 nM |
| OACp4C (oesophagus, adherent, top dose 2.56 µM) | 0.458 | 120 nM |
| OAW-28 (ovary, adherent, top dose 2.56 µM) | 0.862 | > 2560 nM |
| OAW-42 (ovary, adherent, top dose 2.56 µM) | 0.928 | > 2560 nM |
| OC-314 (ovary, adherent, top dose 2.56 µM) | 0.936 | > 2560 nM |
| OCI-AML3 (acute myeloid leukaemia, suspension, top dose 2.56 µM) | 0.812 | 1130 nM |
| OCI-AML5 (acute myeloid leukaemia, suspension, top dose 2.56 µM) | 0.153 | 15.6 nM |
| OCI-LY-19 (B-cell lymphoma, suspension, top dose 2.56 µM) | 0.039 | < 10 nM |
| OCI-M1 (acute myeloid leukaemia, suspension, top dose 2.56 µM) | 0.868 | 1460 nM |
| OCUB-M (breast, adherent, top dose 2.56 µM) | 0.342 | 62.4 nM |
| OCUM-1 (stomach, adherent, top dose 2.56 µM) | 0.987 | > 2560 nM |

| Cell Line | AUC | IC50 |
| --- | --- | --- |
| OE19 (oesophagus, adherent, top dose 2.56 µM) | 0.986 | > 2560 nM |
| OE21 (oesophagus, adherent, top dose 2.56 µM) | 0.976 | > 2560 nM |
| OE33 (oesophagus, adherent, top dose 2.56 µM) | 0.983 | > 2560 nM |
| OMC-1 (cervix, adherent, top dose 2.56 µM) | 0.961 | > 2560 nM |
| ONS-76 (medulloblastoma, adherent, top dose 2.56 µM) | 0.804 | 1400 nM |
| OPM-2 (myeloma, suspension, top dose 2.56 µM) | 0.746 | 688 nM |
| OS-RC-2 (kidney, adherent, top dose 2.56 µM) | 0.926 | > 2560 nM |
| OSC-19 (head and neck, adherent, top dose 2.56 µM) | 0.947 | > 2560 nM |
| OSC-20 (head and neck, adherent, top dose 2.56 µM) | 0.867 | > 2560 nM |
| OV-7 (ovary, adherent, top dose 2.56 µM) | 0.842 | > 2560 nM |
| OV-17R (ovary, adherent, top dose 2.56 µM) | 0.938 | > 2560 nM |
| OV-56 (ovary, adherent, top dose 2.56 µM) | 0.988 | > 2560 nM |
| OV-90 (ovary, adherent, top dose 2.56 µM) | 0.974 | > 2560 nM |
| OVCA420 (ovary, adherent, top dose 2.56 µM) | 0.98 | > 2560 nM |
| OVCA433 (ovary, adherent, top dose 2.56 µM) | 0.958 | > 2560 nM |
| OVCAR-3 (ovary, adherent, top dose 2.56 µM) | 0.986 | > 2560 nM |
| OVCAR-4 (ovary, adherent, top dose 2.56 µM) | 0.919 | > 2560 nM |
| OVCAR-5 (ovary, adherent, top dose 2.56 µM) | 0.969 | > 2560 nM |
| OVCAR-8 (ovary, adherent, top dose 2.56 µM) | 0.96 | > 2560 nM |
| OVISE (ovary, adherent, top dose 2.56 µM) | 0.888 | > 2560 nM |
